Data on 107 compounds can be found in PubChem BioAssay AID488969 (Vanderbilt High Throughput Screening Facility, 2010).

Whole data set: some 110,000 compounds, median “z-score” near -0.1, cut for the highest 2% near 2. The list shows a part of the results. Calls of active or inactive are those of the source.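 The calls were made as follows: active = z-score in the third read window above 3 or below -3; inactive = the rest.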

This assay addresses Metabotropic glutamate receptor 8 (Rattus norvegicus) (UniProt P70579). The experiment in a line: rat mGluR8 modulators via GIRK flux, primary screen, cell-based, thallium flux, HTS (AID 488969). The conditions noted are these: HEK293 rat mGluR8, GIRK (G protein-gated inwardly rectifying potassium channel) thallium flux, FluoZin2; at 10 µM; stronger effect = higher value; submaximal glutamate (EC20) added with thallium.
Sequence of UniProt P70579 (P70579 whole entry, looked up): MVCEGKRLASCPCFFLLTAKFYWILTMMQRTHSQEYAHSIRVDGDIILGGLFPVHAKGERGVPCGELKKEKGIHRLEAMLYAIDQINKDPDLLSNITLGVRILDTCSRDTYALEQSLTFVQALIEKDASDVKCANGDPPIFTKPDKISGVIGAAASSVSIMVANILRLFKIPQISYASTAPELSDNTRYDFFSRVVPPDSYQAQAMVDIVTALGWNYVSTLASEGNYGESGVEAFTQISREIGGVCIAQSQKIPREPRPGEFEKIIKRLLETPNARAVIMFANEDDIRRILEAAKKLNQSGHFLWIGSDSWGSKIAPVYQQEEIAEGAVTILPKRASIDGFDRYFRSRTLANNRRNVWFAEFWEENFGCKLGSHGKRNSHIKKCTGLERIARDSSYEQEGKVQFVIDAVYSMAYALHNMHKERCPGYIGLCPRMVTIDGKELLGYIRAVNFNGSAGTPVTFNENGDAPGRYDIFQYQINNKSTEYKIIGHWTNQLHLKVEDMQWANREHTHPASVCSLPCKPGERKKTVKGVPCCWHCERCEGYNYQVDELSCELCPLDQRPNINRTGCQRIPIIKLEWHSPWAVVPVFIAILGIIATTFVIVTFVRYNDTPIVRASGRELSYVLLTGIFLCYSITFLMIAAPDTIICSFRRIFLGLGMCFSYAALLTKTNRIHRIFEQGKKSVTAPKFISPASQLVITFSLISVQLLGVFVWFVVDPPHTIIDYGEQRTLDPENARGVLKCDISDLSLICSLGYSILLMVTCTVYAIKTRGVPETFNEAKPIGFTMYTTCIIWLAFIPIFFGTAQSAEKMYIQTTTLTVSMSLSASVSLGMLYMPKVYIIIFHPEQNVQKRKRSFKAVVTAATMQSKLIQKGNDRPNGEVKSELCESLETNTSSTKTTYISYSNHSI
For the compound `CCCCN(C(=O)NC(=O)Nc1nc2ccc(OC)cc2s1)S(C)(=O)=O`, the z-score is -0.125.
The result for `Cc1nn(-c2ccccc2)c(N)c1C(c1ccccc1)c1c(C)nn(-c2ccccc2)c1N` reads -0.199; that for `COc1ccc(/C=C2\CN(Cc3ccccc3)C/C(=C\c3ccc(OC)cc3)C2=O)cc1`, -0.443.
The result for `FC(F)Sc1ccc(Nc2ncnc3nc[nH]c23)cc1` reads -1.83.
For `Cc1c(Cl)cnc(NC(=O)COC(=O)c2nn(C)c(=O)c3ccccc23)c1Cl`, the z-score is -0.317.
`Cc1cccc(NC(=O)CC2SC(=O)N(c3ccccc3)C2=O)c1` (configuration not stated) gave a z-score of -0.223.
The result for `Cc1ccccc1NC(=O)CSCC(=O)Nc1ccccc1C` reads -0.244; that for `Nc1nc(-c2ccco2)cs1`, -0.545; that for `COC(=O)N/N=C/c1ccc(-c2ccc(C)c(Cl)c2)o1`, 0.262.
On to `COc1cc(NC(=O)CSc2nnc(C)s2)cc(OC)c1OC`, for which the z-score stood at 0.932.
Under `COc1ccc(OC)c(/C(O)=C/C(=O)C(=O)Nc2cc(C)cc(C)c2)c1` stands 0.571; under `Cc1oc2ccc(NS(=O)(=O)c3ccc(C(C)(C)C)cc3)cc2c1C(=O)Nc1ccccc1`, 0.22; under `Cc1noc(/C=C/N(C)C)c1S(=O)(=O)N(C)CC(=O)NC1CCCCC1`, 2.18.
The result for `COCCn1c(C(C)C)nc2sc3ccccc3c(=O)c2c1=O` reads 0.0364; that for `O=[N+]([O-])c1ccc(Sc2nccn2Cc2ccccc2)c([N+](=O)[O-])c1`, 0.0289; that for `CCOC(=O)N1CCN(C(=O)c2ccc(NC(C)=O)cc2)CC1`, -0.0525.
With `COc1ccc(NC(=O)C(C)NS(=O)(=O)c2ccccc2)cc1Cl` (configuration not stated), the z-score is -0.731.
The result for `Cc1cc(C(=O)CSc2ccc3c(c2)OCCO3)c(C)n1C1CC1` reads -0.14; that for `CC(C)c1cc(Nc2cccc(O)c2)cc(C(C)C)c1O`, -1.18; that for `O=C(NN1C(=O)C2C(c3ccccc3)C=CC(c3ccccc3)C2C1=O)c1cccc(Br)c1` (configuration not stated), 0.0662.
Under `COc1cccc(-c2cc(C(=O)NCCCn3ccnc3)c3ccccc3n2)c1` stands -0.128; under `C=CCN1C(=O)C2C(C(=O)NC3CCCCC3)C3C=CC2(O3)C1C(=O)NC1CCCC1` (configuration not stated), -0.014.
Under `C=CCn1c(SCC2=C(C(=O)OCC)C(C)NC(=O)N2)nnc1C1CCCCC1` (configuration not stated) stands 0.263; under `CCOC(=O)c1nn(-c2cccc(C)c2)c2nnc(Cc3ccc(C)cc3)c(=O)n12`, -0.383.
`Cn1cc(C(=O)N/N=C/C(Br)=C/c2ccccc2)ccc1=O` had a z-score of 0.256.
`Cc1ccc(-c2cc3nc(-c4ccccc4)cc(N4CCOCC4)n3n2)cc1` came in with a z-score of -0.0584.
Compound `CCn1c(O)c(C=NCCN2CCOCC2)sc1=S` showed a z-score of 0.651.
Under `CCOc1ncccc1C(=O)OCc1nnc(-c2ccccc2)o1` stands -0.473.
Under `CC(=O)c1ccc(NC(=O)CSc2nc3nc(C)cc(C)n3n2)cc1` stands 0.986; under `O=C1CN=C(Nc2ccccc2Cl)N1c1ccccc1`, 1.48; under `CN(C(=O)COc1ccccc1)c1nnc(-c2cccnc2)s1`, 0.536.
Under `Cc1ccc(/C=C2\SC(=S)N(CC(=O)Nc3ncc(Cc4ccccc4Cl)s3)C2=O)cc1` stands 0.225; under `CCC(C(=O)OCC(=O)Nc1c(Cl)cc(Cl)cc1Cl)c1ccccc1` (configuration not stated), -0.499.
For `Cc1ccc(OCc2nnc(SCc3nc4ccccc4[nH]3)n2Cc2ccco2)cc1`, the z-score was -0.988.
The result for `COc1ccc(N2CCN(C(=O)CCS(=O)(=O)c3cccc4nsnc34)CC2)cc1` reads -0.17; that for `Cc1nn(-c2ccccc2)c(C)c1/C=N/N1CCN(c2ccccc2)CC1`, -0.131; that for `O=C(CN1CCN(Cc2ccccc2Cl)C1=O)NC1CCCCCCC1`, -0.115.
Under `CCOc1ccc(S(=O)(=O)NCCOC)cc1C` stands -0.211.
Under `CCOC(=O)C1CCN(C(=O)CSc2cc(=O)n(C)c3ccccc23)CC1` stands 0.053; under `CCC(=O)Nc1nc2nc(-c3ccccc3)cc(-c3ccccc3)n2n1`, -0.499; under `CC1CCN(C(=O)C2CCN(S(=O)(=O)c3cccnc3)CC2)CC1`, 2.03.
Compound `CC(C)n1c(CCC(=O)O)ccc1-c1ccccc1` displayed a z-score of 2.11.
`COc1ccc2cc(C#N)c(N3CCN(Cc4nnnn4CCC(C)C)CC3)nc2c1` came in with a z-score of -0.783.
`CN(c1ccc(OCC(=O)OCC(=O)Nc2c(F)c(F)c(F)c(F)c2F)cc1)S(=O)(=O)c1ccc(F)cc1` gave a z-score of -0.205.
The result for `Cn1c(SCC(=O)N/N=C/C=C\c2ccccc2[N+](=O)[O-])nc2ccccc21` reads -0.125.
Under `COC(=O)c1cccc(S(=O)(=O)N2CCN(c3nc4ccccc4s3)CC2)c1` stands 0.221; under `Cn1cnnc1SCC(=O)c1ccco1`, -0.0234; under `Oc1[nH]c2c(Cl)cc(Cl)cc2c1N=NC(=S)NCC1CCCO1` (configuration not stated), active: 7.5.
The result for `Cc1ccc(C)c(NC(=S)NC(NC(=O)Cc2cccc3ccccc23)C(Cl)(Cl)Cl)c1` (configuration not stated) reads -0.117.
`O=C(Nc1ccc(O)c(-c2nc3ccccc3s2)c1)c1cccs1`: the z-score worked out at 0.00864.
As for `COc1ccc(C2N(C(=O)CN3CCOCC3)CCN2S(=O)(=O)c2ccccc2)cc1` (configuration not stated), the z-score is -0.0647.
The result for `Cc1cnc(NC(=O)CSc2nc3ccccc3c(=O)[nH]2)s1` reads 2.14; that for `CC1Cc2nc(SCC(=O)Nc3ccccc3F)n(C)c(=O)c2S1` (configuration not stated), -1.41.
Under `Cc1cc(C(=O)c2ccc(Cl)cc2)c(NC(=O)CCl)s1` stands 0.0429; under `O=S(=O)(NCC(c1cccnc1)N1CCN(c2ccc(F)cc2)CC1)c1ccc(F)cc1` (configuration not stated), 0.938.
The result for `O=C(/C=C/c1ccccc1)N/C(=C/c1ccccc1)C(=O)Nc1ccc(C(=O)O)cc1` reads -0.513.
On to `OC1(CN2CCOCC2)C2CN3CCN(C2)CC1(c1ccccc1)C3` (configuration not stated), for which the z-score was -1.52.
Take `CCc1cc2c(=O)c(-c3cnn(-c4ccccc4)c3)c(C)oc2cc1OCC(=O)Nc1cccc(C)c1`: the z-score is -0.139.
Under `COc1ccc(-n2c(=O)cc(N3CC(C)OC(C)C3)[nH]c2=O)cc1` (configuration not stated) stands -0.209; under `CC(C)Cc1ccc(C(C)C(=O)N2CCOCC2)cc1` (configuration not stated), 0.407; under `Cc1cc2nsnc2c(S(=O)(=O)NCC(=O)O)c1C`, -0.0223.
Under `COc1ccc(-c2n[nH]c(C)c2-c2cnn(-c3ccccc3)c2)c(O)c1` stands -0.418; under `O=C(Oc1ccc(N2C(=O)CCC2=O)cc1)c1ccccc1`, -0.0302; under `NC(=O)Cn1nnc(-c2ccc(C(F)(F)F)cc2)n1`, -0.168.
Under `O=C(NC1CCCCC1)C(c1ccc2ncccc2c1)N(Cc1ccccc1)C(=O)c1ccc2c(c1)OCCO2` (configuration not stated) stands -0.187.
`COCCn1c(C)cc(C(=O)COC(=O)c2ccc(NC(=O)CC#N)cc2)c1C` displayed a z-score of -0.449.
The result for `O=C(NCCc1ccccc1)C1CCN(C(=O)NCc2ccccc2)CC1` reads -0.0603.
With `O=C(c1ccncc1)N(Cc1cc2ccccc2[nH]c1=O)C1CCCCC1`, the z-score is -0.0946.
Under `COc1cc(CNCc2ccncc2)cc(Br)c1OCc1ccccc1F` stands -0.125; under `CC(C)CC(NS(=O)(=O)c1ccc2c(c1)oc(=O)n2C)C(=O)NC1CCCc2ccccc21` (configuration not stated), active: 5.09; under `C=C(C(=O)c1ccccc1)C(C)C(=C)C(=O)c1ccccc1`, -0.457.
The result for `CCOC(=O)c1sc(=S)n(C)c1NC(=O)c1ccccc1Cl` reads -0.226; that for `O=C(NCC(c1cccs1)N1CCOCC1)c1ccccc1NS(=O)(=O)c1cc([N+](=O)[O-])ccc1Cl` (configuration not stated), -0.0115; that for `O=C1c2ccccc2C(=O)N1CN(C(=O)COc1ccccc1)c1ccc(F)cc1`, -0.105.
The result for `CCOC(=O)c1nn(-c2cc(C(=O)OC)cc(C(=O)OC)c2)cc1O` reads 0.745.
In turn, `O=C(O)C1CC=CCC1C(=O)Nc1ccc(F)c(F)c1` (configuration not stated) showed a z-score of -0.812.
The result for `Cc1cc2nnc(SCC(=O)Nc3cccc(S(=O)(=O)N4CCOCC4)c3)n2c2ccccc12` reads 0.339; that for `CC(Oc1ccc(Cl)cc1)C(=O)NCCCn1ccnc1` (configuration not stated), 0.246; that for `O=C(N/N=C/c1ccc([N+](=O)[O-])s1)C(O)c1ccccc1` (configuration not stated), -0.341.
Under `COc1ccc(NS(=O)(=O)c2ccc(N/N=C(\C)c3ccncc3)c([N+](=O)[O-])c2)cc1` stands -0.275; under `C=CCn1c(NC(=O)c2ccc(Br)o2)c(C(=O)OCC)sc1=S`, 1.27.
Under `COc1cc(OC)cc(C(=O)NC2CCN(Cc3nnnn3Cc3cccs3)CC2)c1` stands -0.489; under `CCOC(=O)CSc1nnc(-c2ccncc2)o1`, 0.0058.
`O=C(NCCCn1ccnc1)c1cc2nc(-c3ccc(Br)cc3)cc(C(F)(F)F)n2n1`: the z-score is -0.126.
The result for `COc1ccc(Cn2c(C)c(C)c(C#N)c2NC(=O)Nc2ccccc2)cc1` reads 0.0736; that for `Fc1cccc(-c2nn[nH]n2)c1`, -0.236; that for `CCN(CC)CC(=O)c1ccc(-c2ccccc2)cc1`, 0.293.
`COc1ccc(OCc2nnnn2-c2ccccc2)cc1` yielded a z-score of 0.144.
Under `Cc1ccc2nc3c(cc2c1)c(NS(=O)(=O)c1ccccc1)nn3CC(C)C` stands -0.165.
The result for `O=C(COc1ccc(S(=O)(=O)NC2CCCCC2)cc1)NCCC1=CCCCC1` reads 0.0563; that for `CCOC(=O)Cc1csc(NC(=O)c2ccc3c(c2)OCO3)n1`, -0.00374; that for `CCCCc1sc(-c2c(C#N)c(N)nc3c2CCCCC3)cc1[N+](=O)[O-]`, 0.124.
Under `Cc1ccc(CNC(=O)c2oc3ccc(S(=O)(=O)N4CCOCC4)cc3c2C)cc1` stands -0.153; under `CC(=O)Nc1nonc1NC(=O)c1ccc(F)cc1`, 0.0895.
For the compound `O=C1CN(C(=O)COC(=O)C23CC4CC(CC(O)(C4)C2)C3)c2ccccc2N1`, the z-score was found to be 0.67.
Under `Cc1cccc(-c2c3c(=O)n(C)c(=O)n(C)c3cn2CC2CCCO2)c1` (configuration not stated) stands 0.462; under `COc1ccc(N=Cc2sc(O)c3ccccc23)cc1`, -0.252.
Under `COc1ccc(C(c2nnnn2C2CCCC2)N2CCN(C3CCCC3)CC2)cc1OC` (configuration not stated) stands -0.309; under `CC(C)Cn1nc(NC(=O)C2CCCO2)c2cc3ccccc3nc21` (configuration not stated), -1.57.
The result for `COC(=O)/C(=C(/F)Sc1cc(C)c(O)c(C)c1)C(F)(F)F` reads 0.715; that for `Cc1occc1C(=O)NNC(=O)NC12CC3CC(CC(C3)C1)C2`, -0.244.
Turning to `O=C(CCCOc1ccc(Cl)cc1Cl)Nc1ccncc1`, the z-score is 2.21.
Under `CCCCN(CCCC)c1cc(C)nc(-c2ccccc2O)n1` stands -0.125.
Regarding `COc1cc(Nc2nc3ccccc3n3nnnc23)cc(OC)c1OC`, the z-score was -0.0435.
The result for `CCC(=O)c1c[nH]c(C(=O)NCCCN2CCOCC2)c1` reads -0.121; that for `COc1ccc(N2CCN(C(=O)c3ccc(C)c(Cl)c3)CC2)cc1`, -1.08; that for `N#CC1=C(SCC(=O)c2cc3ccccc3oc2=O)NC(=O)C(C#N)C12CCCC2` (configuration not stated), 0.149.
